In PubChem BioAssay AID1508624 (National Center for Advancing Translational Sciences (NCATS), 2021):
Screen size: about 48,000 compounds; about 120 (0.25%) were called active. Not shown: some 4% with an inconclusive outcome. Calls come from the whole dose curve; as a rule, active = well fitted activation curve with a large enough effect; inconclusive = small, poorly fitted or top-dose-only effect, or another doubt; inactive = no such curve, though single readings can be large or run the other way. Some of the results follow.

Test: Primary qHTS for Identification of Small Molecule Activators of Huntingtin-Antisense Promoter Activity; note: nearly all actives have a fitted effect of over 55% in size
Conditions: HEK293 HTT-AS promoter firefly luciferase reporter, 24 h; series mostly up to 57.5 µM; activity change, positive = activation: at the top concentration
Summary of the method: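 Firefly luciferase signal from promoter-reporter HEK293 cells was scaled between vehicle (0%) and zero RLU (-100%). Compounds were tested at final concentrations of up to 57.5 uM over 24 h at 37 degrees C. PTC124 at 50 uM final served as control inhibitor.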

Activity change, positive = activation, inactive:
CN(C)CCCNC(=O)C(=O)NCC(c1ccc2c(c1)OCO2)N1CCOCC1 (configuration not stated) 1.09%
Cc1nc2nc(SCC(=O)Nc3ccccc3Cl)nn2c(C)c1Cc1ccccc1 -23.7%
O=C(c1ccc(Br)cc1)N(Cc1cccs1)c1ccc(F)cc1 -26.9%
CN1CCN(C(=O)Cn2ncc3c4ccccc4n(Cc4ccc(F)cc4)c3c2=O)CC1 -2.46%
CCOCCn1ccc2c(OCC(=O)Nc3cccc([N+](=O)[O-])c3)cccc2c1=O -25%
COc1cccc(C(=O)Nc2ccccc2OCc2cc(=O)n3ccccc3n2)c1 -0.225%
Cc1noc(/C=C/c2cccs2)c1S(=O)(=O)N1CCC(C(=O)NCc2ccc(Cl)cc2)CC1 -27.3%
Cc1cc(N(CCO)Cc2ccccc2)n2nc(-c3ccc(C(C)(C)C)cc3)nc2n1 -5.34%
Cc1cccn2c(=O)c(/C=C(\C#N)c3nc4ccccc4s3)c(Oc3ccc(F)cc3)nc12 8.26% [at 11.5 µM, percent change from vehicle, -100% = no light]
COc1ccc(CNC(=O)c2cnc3sc(N4CCCC4)nn3c2=O)c(OC)c1 1.88%
CCCCNC(=O)CSc1nc2cc3c(cc2c(=O)n1CCCCCC(=O)NCc1ccc(OC)cc1)OCO3 -6.49%
Cc1ccccc1C(=O)NCCc1sc(-c2ccc(Cl)cc2)nc1C 2.17%
COc1ccc(CNC(=O)Cc2csc3nc(-c4ccc(F)cc4)cn23)cc1 -15.3%
COc1ccc(-c2nc(SCC(=O)NC3CCCC3)c(-c3ccc(C)cc3)[nH]2)cc1OC -27.6%
CCOc1ccc(NC(=O)C(=O)NCC(c2cccnc2)N2CCc3ccccc32)cc1 (configuration not stated) -61.5%
CCOC(=O)C1CCCN(S(=O)(=O)c2ccc3c(c2)oc(=O)n3C)C1 (configuration not stated) -23.3%
COc1ccc(N(Cc2cccs2)C(=O)Nc2cccc(Cl)c2)cc1 -20.8%
Cc1ccccc1NC(=O)CCN1C(=O)c2ccccc2Sc2ncccc21 -16.5%
COc1cccc(NC(=O)CCc2c(C)nc3ncnn3c2C)c1 -7.93%
COc1ccc(-c2cn3c(n2)sc2cc(C(=O)NCc4cccc(F)c4)ccc23)cc1 3.58%
Cc1ccc(NC(=O)Cn2c(=O)n(Cc3ccc4c(c3)OCO4)c(=O)c3ccccc32)cc1 -19.8%
Cc1ccccc1-c1cc2nccc(-c3cc(Cl)ccc3O)n2n1 -1.58%
Cc1ccc(C(=O)c2cn(Cc3ccccc3C)c3nc(C)ccc3c2=O)cc1 -26.6%
CCCc1cnc2c(c1SCc1cccc(F)c1)c(=O)n(C)c(=O)n2C -29.7%
CCCc1noc(-c2ccc(NCc3ccc(C)cc3)c([N+](=O)[O-])c2)n1 2.31%
Cc1ccc(NC(=O)CN2C(=O)COc3ccc(S(=O)(=O)NC4CCCC4)cc32)c(Cl)c1 -25.4%
Cc1nc(C)c(CCNS(=O)(=O)c2ccc(F)cc2)s1 -27.8%
CN1C(=O)C2(c3ccccc31)N(c1ccc(Br)cc1)C(=O)CS2(=O)=O (configuration not stated) -20.2%
COc1ccc2c(c1)-c1nc(NC(=O)c3cc(OC)c(OC)c(OC)c3)sc1CC2 -44%
O=c1[nH]c(C2CCCN(S(=O)(=O)c3ccccc3)C2)nc2c1nnn2Cc1ccc(OC(F)(F)F)cc1 (configuration not stated) 15.6%
O=C(C1CCC(Cn2c(=O)c3sccc3n(Cc3ccc(F)cc3)c2=O)CC1)N1CCOCC1 (configuration not stated) -20%
CN1C(=O)c2[nH]nc(-c3ccc(F)cc3)c2C1c1cccc(O)c1 (configuration not stated) -20.2%
Cn1cc(-c2cc3n(n2)CCC(=O)N3CCCC(=O)NCc2ccccc2Cl)c2ccccc21 -12.7%
Cc1cc(C)cc(Nc2nc3cc(Cl)c(Cl)cc3nc2-n2nc(C)cc2C)c1 -16.5%
CC(C)CCn1c(SCc2cccc(F)c2)nc2ccsc2c1=O -18.9%
CCc1ccc2oc(C(=O)NCc3ccccc3)cc(=O)c2c1 28% [at 11.5 µM, percent change from vehicle, -100% = no light]
C#CC(C)(CC)NC(=O)Cn1nnc(-c2ccc(OCc3c(F)cccc3Cl)cc2)n1 (configuration not stated) -29.4%
COc1cc(NC(=O)CN(c2cc(C)cc(C)c2)S(=O)(=O)c2c(C)[nH]c(=O)[nH]c2=O)cc(OC)c1 -16%
Cc1cn2c(=O)cc(COc3ccc(NC(=O)COc4ccccc4)cc3)nc2s1 -0.191%
Cc1ccc(-n2c(=O)c3ccc(C(=O)NCc4ccccc4Cl)cc3n(CC(=O)Nc3ccc(C)cc3C)c2=O)cc1 -10.8%
Cc1cc(C)cc(C(=O)n2nc(C)c(S(=O)(=O)N3CCOCC3)c2C)c1 -8.22%
O=C(CSc1ncc2c(n1)-c1ccccc1N(Cc1ccc(F)cc1)S2(=O)=O)NCCc1ccccc1 7.59%
CCOC(=O)c1c(NC(=O)c2ccc(F)cc2)sc2c1CCC(CC)C2 (configuration not stated) -12.9% [at 11.5 µM, percent change from vehicle, -100% = no light]
Cc1ccc(Nc2cc(C)nc3nncn23)c(C)c1 -6.05%
CCOC(=O)c1cccc(NC(=O)[C@H](CSCc2ccccc2)N2Cc3ccccc3C2=O)c1 -20.6%
COc1ccc(-n2c(SCc3ccccc3)nc3c([nH]c4ccccc43)c2=O)cc1 -15.7%
COc1cccc(CNC(=O)Cn2nc(N3CCN(c4ccccc4OC)CC3)ccc2=O)c1 -9.51%
COc1ccc(C)cc1NC(=O)CN1C(=O)COc2ccc(S(=O)(=O)N3CCC(C)CC3)cc21 -20.3%
Cc1c(Cl)cccc1NC(=O)C(C)n1c(=O)cc(C)c2c(C)nn(-c3ccccc3)c21 (configuration not stated) -2.67%
CCOc1ccc(-n2c(=O)c3c(C)c(C)sc3n(Cc3ccccc3C)c2=O)cc1 -2.44%
CCCCOc1ccc(C2C(=O)N(C3CCCCC3)CC(=O)N2CCCC)cc1 (configuration not stated) -6.25%
Cc1cc(C)cc(C(=O)N2CC(=O)Nc3ccc(Br)cc3C2c2ccccc2)c1 (configuration not stated) -48.6%
Cc1ccc(NC(=O)Cn2c(-c3nonc3N)nc3ccccc32)c(Br)c1 -19.4%
COc1cccc(CNC(=O)CCc2c(C)c3ccc(O)c(C)c3oc2=O)c1 -5.72%
CCOC(=O)c1noc2ncn(CC(=O)Nc3ccccc3OC)c(=O)c12 -8.95%
Cc1ccc(-n2ncc(C(=O)NCCCN3CCc4ccccc4C3)c2C2CCN(C(=O)OC(C)(C)C)CC2)c(C)c1 -21.5%
CCCCN(CC)CCCNC(=O)c1ccc2c(c1)NC(=O)CN2C -6.76%
